PubChem BioAssay (NCI)
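Dose response: 5 concentrations. Exposure: 48 h. Format: 96-well plates. Endpoint: linear interpolation; highest concentration if not reached. At the GI50, growth is halved. The concentration for full growth arrest is given as TGI.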

tested on: NCI-H322M lung; assay: inhibition of tumour cell growth, NCI panel, 48 h

| SMILES | GI50 | TGI |
| --- | --- | --- |
| Oc1ccc(CSc2nnc(-c3cnccn3)o2)c2cccnc12 | 1510 nM | > 100000 nM |
| Oc1ccc(-c2nnc(SCc3ccc(O)c4ncccc34)o2)cc1 | 1430 nM | > 52600 nM |
| NS(=O)(=O)c1ccc(Nc2nc(Nc3ccccc3)nc(-n3nc(-c4ccccc4)cc3-c3ccccc3)n2)cc1 | 2780 nM | 29900 nM |
